From PMC5700166
The list shows a part of the results, in another mix than the full data. The list includes weakly bound sequences.

Target: T1, GST-Ap-NF-kB RHD (UniProt A0A913YAJ5)
T1 sequence: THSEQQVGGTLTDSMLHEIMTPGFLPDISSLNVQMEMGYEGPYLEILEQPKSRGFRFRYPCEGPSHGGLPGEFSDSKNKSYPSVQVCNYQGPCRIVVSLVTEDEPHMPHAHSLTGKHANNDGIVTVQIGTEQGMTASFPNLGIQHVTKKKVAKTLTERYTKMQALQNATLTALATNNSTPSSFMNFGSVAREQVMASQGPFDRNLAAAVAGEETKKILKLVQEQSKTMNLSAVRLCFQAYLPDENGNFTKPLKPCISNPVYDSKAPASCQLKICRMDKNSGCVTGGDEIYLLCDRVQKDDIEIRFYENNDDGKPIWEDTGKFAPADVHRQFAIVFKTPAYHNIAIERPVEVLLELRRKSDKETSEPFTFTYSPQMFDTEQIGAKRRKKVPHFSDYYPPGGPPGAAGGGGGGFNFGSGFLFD
Assay: protein-binding microarray (PBM)
Details: PBM: ~300 nM protein, 6 mM HEPES pH 7.8, 80 mM KCl, 0.5 mM EDTA, 0.5 mM EGTA, 6% glycerol, 35 ng/ul poly-dIdC, 1% milk, 1 h, room temperature; high values mean tight binding; double strand, one strand shown

| Sequence | binding signal |
| --- | --- |
| CCGATTAACATCACGGGGATTTCTGATGTTAATCGGGTCTTGATTCGCTTGACGCTGCTG | 9.25 z-score |
| CCGATTAACATCACAAAAGTCCCTGATGTTAATCGGGTCTTGATTCGCTTGACGCTGCTG | 7.21 z-score |
| CCGATTAACATCACGTACTTCCCTGATGTTAATCGGGTCTTGATTCGCTTGACGCTGCTG | 1.66 z-score |
| CCGATTAACATCACATGGGAAACTGATGTTAATCGGGTCTTGATTCGCTTGACGCTGCTG | 1.24 z-score |
| CCGATTAACATCAACTCGGGAAATGATGTTAATCGGGTCTTGATTCGCTTGACGCTGCTG | 1.08 z-score |
| CCGATTAACATCAAGAAACCCCCTGATGTTAATCGGGTCTTGATTCGCTTGACGCTGCTG | 9.53 z-score |
| CCGATTAACATCAACAAACCCCCTGATGTTAATCGGGTCTTGATTCGCTTGACGCTGCTG | 6.74 z-score |
| CCGATTAACATCAGGGGCCGTAATGATGTTAATCGGGTCTTGATTCGCTTGACGCTGCTG | 1.66 z-score |
| CCGATTAACATCACCAATTTCCCTGATGTTAATCGGGTCTTGATTCGCTTGACGCTGCTG | 3.3 z-score |
| CCGATTAACATCAAGGGGGTACTTGATGTTAATCGGGTCTTGATTCGCTTGACGCTGCTG | 4.81 z-score |
| CCGATTAACATCACATGTGGGAATGATGTTAATCGGGTCTTGATTCGCTTGACGCTGCTG | 0.772 z-score |

Target: T2, GST-Co-NF-kB (UniProt F1ARL5)
T2 sequence: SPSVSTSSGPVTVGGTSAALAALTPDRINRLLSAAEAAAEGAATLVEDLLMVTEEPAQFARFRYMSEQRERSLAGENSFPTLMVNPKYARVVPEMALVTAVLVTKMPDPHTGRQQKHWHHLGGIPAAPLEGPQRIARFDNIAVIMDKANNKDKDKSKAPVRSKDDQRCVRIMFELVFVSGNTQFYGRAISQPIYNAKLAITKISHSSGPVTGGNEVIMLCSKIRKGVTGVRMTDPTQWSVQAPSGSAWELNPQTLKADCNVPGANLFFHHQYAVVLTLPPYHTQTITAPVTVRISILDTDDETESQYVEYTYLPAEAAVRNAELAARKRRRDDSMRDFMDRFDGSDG
Assay: protein-binding microarray (PBM)
Details: PBM: ~300 nM protein, 6 mM HEPES pH 7.8, 80 mM KCl, 0.5 mM EDTA, 0.5 mM EGTA, 6% glycerol, 35 ng/ul poly-dIdC, 1% milk, 1 h, room temperature; Ap Aiptasia and Nv Nematostella (sea anemones) / Co Capsaspora / Aq Amphimedon (sponge) / Dm Drosophila / Hu human; RHD is the Rel homology domain; high values mean tight binding; most listed sequences are background and not binding sites; double strand, one strand shown

| Sequence | binding signal |
| --- | --- |
| CCGATTAACATCAGGGACAAAAATGATGTTAATCGGGTCTTGATTCGCTTGACGCTGCTG | 2.39 z-score |
| CCGATTAACATCAGTTGGGAAAATGATGTTAATCGGGTCTTGATTCGCTTGACGCTGCTG | 2.64 z-score |
| CCGATTAACATCAGGGAGTGCCCTGATGTTAATCGGGTCTTGATTCGCTTGACGCTGCTG | 0.582 z-score |
| CCGATTAACATCAGGGAAATTAATGATGTTAATCGGGTCTTGATTCGCTTGACGCTGCTG | 4.18 z-score |
| CCGATTAACATCAAGGAATCCCCTGATGTTAATCGGGTCTTGATTCGCTTGACGCTGCTG | 3.63 z-score |
| CCGATTAACATCAGGACATACCCTGATGTTAATCGGGTCTTGATTCGCTTGACGCTGCTG | 0.242 z-score |
| CCGATTAACATCAGGACCTCCCCTGATGTTAATCGGGTCTTGATTCGCTTGACGCTGCTG | 2.53 z-score |
| CCGATTAACATCAACAGGGAAAATGATGTTAATCGGGTCTTGATTCGCTTGACGCTGCTG | 2.91 z-score |
| CCGATTAACATCACATTCCCCCCTGATGTTAATCGGGTCTTGATTCGCTTGACGCTGCTG | 8.44 z-score |
| CCGATTAACATCAAGGGGGGGTGTGATGTTAATCGGGTCTTGATTCGCTTGACGCTGCTG | 4.12 z-score |
| CCGATTAACATCAGAAATGGGAATGATGTTAATCGGGTCTTGATTCGCTTGACGCTGCTG | 1.87 z-score |
| CCGATTAACATCAAAACTCCCCATGATGTTAATCGGGTCTTGATTCGCTTGACGCTGCTG | 5.85 z-score |
| CCGATTAACATCAGGGGGAAATATGATGTTAATCGGGTCTTGATTCGCTTGACGCTGCTG | 11.1 z-score |
| CCGATTAACATCAAAAAGCCCCGTGATGTTAATCGGGTCTTGATTCGCTTGACGCTGCTG | 1.43 z-score |
| CCGATTAACATCAGGAGATACCCTGATGTTAATCGGGTCTTGATTCGCTTGACGCTGCTG | 0.793 z-score |
| CCGATTAACATCACCCATGGGAATGATGTTAATCGGGTCTTGATTCGCTTGACGCTGCTG | 2.05 z-score |
| CCGATTAACATCAAGCCTGTCCCTGATGTTAATCGGGTCTTGATTCGCTTGACGCTGCTG | 0.08 z-score |
| CCGATTAACATCACAAAAGTCCCTGATGTTAATCGGGTCTTGATTCGCTTGACGCTGCTG | 2.27 z-score |
| CCGATTAACATCACATGGGAAACTGATGTTAATCGGGTCTTGATTCGCTTGACGCTGCTG | 2.48 z-score |
| CCGATTAACATCAAGAAACCCCCTGATGTTAATCGGGTCTTGATTCGCTTGACGCTGCTG | 3.31 z-score |
| CCGATTAACATCAACAAACCCCCTGATGTTAATCGGGTCTTGATTCGCTTGACGCTGCTG | 2.52 z-score |
| CCGATTAACATCAGGGGCCGTAATGATGTTAATCGGGTCTTGATTCGCTTGACGCTGCTG | 0.38 z-score |
| CCGATTAACATCACATGTGGGAATGATGTTAATCGGGTCTTGATTCGCTTGACGCTGCTG | 2.62 z-score |
